According to PubChem BioAssay (Tox21):
Values joined by “and” are separate entries in the source; they are usually repeats but may differ in a detail not shown here. Equal values may be shown once. The inconclusive results got no clear call from the source; some entries with a clear call stand among them for comparison. Where the call is inconclusive, the potency comes from a doubtful curve fit. A structure can be active in one record and inactive in another. Active and inactive are the calls of the source. Calls follow the shape of the dose curve; as a rule, active = well fitted cell-killing curve with a large enough effect in the repeat runs; inconclusive = weak or mixed curves, or effect the other way; inactive = no such curve, though single readings can be large or run the other way.

assay: qHTS assay for identifying genotoxic compounds that show differential cytotoxicity against isogenic chicken DT40 cell lines with known DNA damage response pathways - Rev3 mutant cell line (AID 743014); conditions: chicken DT40 Rev3-/- viability, CellTiter-Glo, 40 h; series mostly up to 68.4 µM; also: nearly all actives have a fitted effect of over 55% in size
From the text: National Center for Advancing Translational Sciences [NCATS]
NIH Chemical Genomics Center [NCGC]
U.S. Environmental Protection Agency [EPA]
National Institutes of Environmental Health Sciences [NIEHS]
National Toxicology Program [NTP]
U.S. Food and Drug Administration [FDA]
DNA repair pathways play a critical role in cellular homeostasis by repairing DNA damage induced by endogenous processes and xenobiotics. Isogenic chicken DT40 cell lines deficient in different DNA repair pathways can be used to identify genotoxic compounds and aid in characterizing the nature of the DNA damage induced. Two DNA repair-deficient cell lines with disrupted genes, Rad54/Ku70 or Rev3, were used to screen the Tox21 10K compound library. Possible genotoxicity was based on the presence of a significant increase in cytotoxicity in one or more of the DNA repair-deficient cell lines compared to that observed in the parental DNA repair-proficient cell line. CellTiter Glo viability assay (Promega, Madison, WI) was used to measure cell viability in these cells after compound treatment. This assay includes the data from the Rev3 mutant cell line.
Tox21 Assay Protocol Summary:
300 DT40 mutant cells in 5 uL/well were dispensed into white, solid-bottom 1536-well plates using a Multidrop Combi (ThermoFisher Scientific, Waltham, MA) dispenser. After the assay plates were incubated at 37 C/5% CO2 for approximately 0.5 hour, 23 nL of compounds dissolved in DMSO, positive controls or DMSO only was transferred into the assay plate by a pintool work station (Kalypsys, San Diego, CA). The assay plates were incubated at 37 C/5% CO2 for 40 hours. After 5 uL per well of CellTiter-Glo reagent was added into each well of the assay plates, the plates were incubated for 30 min at room temperature and the luminescence intensity of the plates was measured using a ViewLux (PerkinElmer, Shelton, CT) plate reader.
Potency is read from the fitted curve at half-maximal effect; tags tell the direction and shape of the fitted curve.

Row | Structure (SMILES) | Potency
1 | CC(=O)C(C)(C)C | active: 3.18 µM
2 | Cc1cc(Cl)ccc1N=CN(C)C | inconclusive: 27.3 µM [cytotoxic, partial curve]
3 | Nc1ccc(-c2ccccc2)cc1 | active: 54.5 µM
4 | CN(C)C(=S)[S-].CN(C)C(=S)[S-].[Cu+2] | inconclusive: 16.7 µM [cytotoxic, single point]
5 | Clc1ccc(C2(Cn3cncn3)OCCO2)c(Cl)c1 | inconclusive: 29.8 µM [cytotoxic, partial curve, poor fit]
6 | N#CCC#N | inconclusive: 77 µM [cytotoxic, single point]
7 | CCCC[N+]1(C)CCCC1 | inconclusive: 76.7 µM [rising, partial curve, poor fit]
8 | CC(C)c1c(CN(C)C(C)Cc2ccccc2)n(C)n(-c2ccccc2)c1=O (stereo not given) | inconclusive: 7.17 µM [cytotoxic]
9 | CC1CC(CC2CCC(N)C(C)C2)CCC1N (stereo not given) | active: 2.47 µM
10 | O=S(=O)(O)C(F)(F)C(F)(F)C(F)(F)C(F)(F)C(F)(F)C(F)(F)C(F)(F)C(F)(F)F | inconclusive: 65.3 µM [cytotoxic, single point]
11 | CN/C(=N\[N+](=O)[O-])NCc1cnc(Cl)s1 | inactive
12 | CCC(CC)Nc1c([N+](=O)[O-])cc(C)c(C)c1[N+](=O)[O-] | inconclusive: 68.5 µM [cytotoxic, single point]
13 | C[C@]12CCC(=O)C=C1CC[C@@H]1[C@@H]2CC[C@@]2(C)[C@H]1CC[C@]2(C)O | active: 26.6 µM and active: 29.8 µM and active: 26 µM
14 | CC(C)=C[C@@H]1[C@@H](C(=O)OCc2coc(Cc3ccccc3)c2)C1(C)C | active: 34.4 µM
15 | Cn1c(N)nc2c3cccnc3ccc21 | inconclusive: 46.1 µM [cytotoxic, partial curve]
16 | Nc1ccc(Br)cc1 | inconclusive: 68.5 µM [cytotoxic, single point]
17 | Nc1ccccc1C(=O)Oc1ccc2ccccc2c1 | inconclusive: 19.3 µM [cytotoxic, full curve]
18 | CCN(CCO)CCO | inconclusive: 68.6 µM [cytotoxic, single point]
19 | COC(N)=O | inconclusive: 43.3 µM [cytotoxic, partial curve]
20 | CCCCN(CC)c1c([N+](=O)[O-])cc(C(F)(F)F)cc1[N+](=O)[O-] | inconclusive: 61.1 µM [cytotoxic, single point]

Row | Structure (SMILES) | Potency
21 | C=CC(=O)OCCCCO | inconclusive: 43.3 µM [cytotoxic, partial curve]
22 | CC(C)N(CCC(C(N)=O)(c1ccccc1)c1ccccn1)C(C)C (stereo not given) | inconclusive: 33.5 µM [rising, partial curve, poor fit]
23 | C#CCOC(C(=O)OCCN(C)C)(c1ccccc1)c1ccccc1 | inactive
24 | CCSCc1ccccc1OC(=O)NC | inconclusive: 34.4 µM [cytotoxic, partial curve]
25 | COc1nn(CSP(=S)(OC)OC)c(=O)s1 | active: 45.8 µM
26 | N#CC(CCc1ccc(Cl)cc1)(Cn1cncn1)c1ccccc1 (stereo not given) | active: 13.7 µM
27 | CCCCCCCCCCCCN=C(N)N | active: 1.89 µM
28 | Nc1c(Cl)cc([N+](=O)[O-])cc1Cl | active: 61.1 µM
29 | C=CC(=O)NCNC(=O)C=C | inconclusive: 36.4 µM [cytotoxic]
30 | O=C(NC(=O)c1ccccc1Cl)Nc1ccc(OC(F)(F)F)cc1 | inconclusive: 6.11 µM [cytotoxic, full curve]
31 | CC(C)(C)OOC(C)(C)C | inactive
32 | Cc1ncc(CNC(=O)N(CCCl)N=O)c(N)n1 | inconclusive: 33.5 µM [cytotoxic]
33 | CCCCCc1cc(O)cc(O)c1 | inconclusive: 61.4 µM [cytotoxic, partial curve]
34 | S=C1NCCN1 | inactive and inconclusive: 217 nM [cytotoxic, full curve, poor fit]
35 | Oc1c(Cl)c(Cl)c(Cl)c(Cl)c1Cl | inconclusive: 67.2 µM [cytotoxic, single point]
36 | CCC(C)(CC)c1cc(NC(=O)c2c(OC)cccc2OC)on1 | inconclusive: 68.8 µM [cytotoxic, single point] and active: 66 µM
37 | CC(C)=CC1C(C(=O)OCc2cccc(Oc3ccccc3)c2)C1(C)C (stereo not given) | inactive
38 | O=[N+]([O-])c1ccccc1O | inconclusive: 0.0154 µM [cytotoxic, full curve, poor fit]
39 | CCOc1cc(Oc2ccc(C(F)(F)F)cc2Cl)ccc1[N+](=O)[O-] | inconclusive: 54.5 µM [cytotoxic, partial curve, poor fit]
40 | Nc1ccc(-c2ccc(N)cc2)cc1 | inconclusive: 67.8 µM [cytotoxic, single point] and inconclusive: 34.1 µM [cytotoxic, single point] and active: 61.1 µM
